Measured values reported in publication PMC7076219 (2020).
Values joined by “and” are separate entries in the source; they are usually repeats but may differ in a detail not shown here. Equal entries are not always repeated.

Tests used:
[1] = biological target: T1, CD44/HCELL (hematopoietic cell E- and/or L-selectin ligand) (human (endogenous in KG1a), UniProt P16070-12 21-361); assay: SPR
[2] = biological target: T1, CD44/HCELL (hematopoietic cell E- …); assay: SPR; remark: listed apart in the source

B1: E-S6-IgG (mouse E-selectin extracellular region fused to the Fc region of human IgG1, from silkworm) (Fc fusion)
chain: WYYNASSELMTYDEASAYCQRDYTHLVAIQNKEEINYLNSNLKHSPSYYWIGIRKVNNVWIWVGTGKPLTEEAQNWAPGEPNNKQRNEDCVEIYIQRTKDSGMWNDERCNKKKLALCYTASCTNASCSGHGECIETINSYTCKCHPGFLGPNCEQAVTCKPQEHPDYGSLNCSHPFGPFSYNSSCSFGCKRGYLPSSMETTVRCTSSGEWSAPAPACHVVECEALTHPAHGIRKCSSNPGSYPWNTTCTFDCVEGYRRVGAQNLQCTSSGIWDNETPSCKAVTCDAIPQPQNGFVSCSHSTAGELAFKSSCNFTCEQSFTLQGPAQVECSAQGQWTPQIPVCKAVQCEALSAPQQGNMKCLPSASGPFQNGSSCEFSCEEGFELKGSRRLQCGPRGEWDSKKPTCSAVKCDDVPRPQNGVMECAHATTGEFTYKSSCAFQCNEGFSLHGSAQLECTSQGKWTQEVPSCQVVQCPSLDVPGKMNMSCSGTAVFGTVCEFTCPDDWTLNGSAVLTCGATGRWSGMPPTCEAPVSPTR[human IgG1 Fc with C220S (EU numbers) not given here]
- Kd [1]: 190 nM
- koff [2]: 0.000214 s⁻¹ and 0.00014 s⁻¹
